# Measured values taken from the supplement of paper PMC4604168 (melanoma cell lines).
# The other results are listed elsewhere or left out. Many values rest on one well or one pass, so single values are uncertain.
# How the values were obtained:
# Experiment in all cases: cell count relative to DMSO control; melanoma cells; higher = more viable cells
# Conditions in all cases: library dose: low library concentration; 72 h
# WM115 = system: WM115
# WM1716 = system: WM1716
# WM1745 = system: WM1745
# WM3526 = system: WM3526
# WM3619 = system: WM3619
# WM451Lu = system: WM451Lu
# 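Also: cell number obtained by counting DAPI-stained nuclei in high-throughput microscope images with image analysis software, screen run in 1,536-well plates.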
Compound,cell count (WM115) [%],cell count (WM1716) [%],cell count (WM1745) [%],cell count (WM3526) [%],cell count (WM3619) [%],cell count (WM451Lu) [%]
"O=c1[nH]nc(Sc2ncc([N+](=O)[O-])s2)n1-c1ccc2c(c1)OCCO2 + Nc1cccc2c1CN(C1CCC(=O)NC1=O)C2=O [lenalidomide] (first compound 0.2 µM, partner dose 1 µM)",96.2,102,104,102,96.3,102
"O=c1[nH]nc(Sc2ncc([N+](=O)[O-])s2)n1-c1ccc2c(c1)OCCO2 + OCCn1cc(-c2cnc3nnn(Cc4ccc5ncccc5c4)c3n2)cn1 [PF04217903] (first compound 0.2 µM, partner dose 1 µM)",99.6,111,98.3,86.6,92.1,93
"O=c1[nH]nc(Sc2ncc([N+](=O)[O-])s2)n1-c1ccc2c(c1)OCCO2 + c1cc(-c2cnn3cc(-c4ccc(OCCN5CCCCC5)cc4)cnc23)ccn1 [Dorsomorphin] (first compound 0.2 µM, partner dose 0.4 µM)",105,111,83.2,90.2,109,103
"CC1(C)NC(=O)N(c2ccc([N+](=O)[O-])c(C(F)(F)F)c2)C1=O [nilutamide] + N#Cc1c(O)c2c(-c3ccc(-c4ccccc4O)cc3)csc2[nH]c1=O [A769662] (first compound 1 µM, partner dose 2 µM)",103,76.9,96.2,102,120,108
"CC1(C)NC(=O)N(c2ccc([N+](=O)[O-])c(C(F)(F)F)c2)C1=O [nilutamide] + OCCn1cc(-c2cnc3nnn(Cc4ccc5ncccc5c4)c3n2)cn1 [PF04217903] (first compound 1 µM, partner dose 1 µM)",100,102,86.3,87.4,108,102
"C[C@@H]1CCN(C(=O)CC#N)C[C@@H]1N(C)c1ncnc2[nH]ccc12 + COc1ccc(-c2ccc3c(N4CCOCC4)nc(N4C[C@@H](C)O[C@@H](C)C4)nc3n2)cc1CO [KU0063794] (first compound 1 µM, partner dose 0.02 µM)",94.7,104,84.7,92.5,120,87.6
"CC1(C)NC(=O)N(c2ccc([N+](=O)[O-])c(C(F)(F)F)c2)C1=O [nilutamide] + O=S(=O)(c1ccccc1)N(CC(F)(F)F)c1ccc(C(O)(C(F)(F)F)C(F)(F)F)cc1 [T0901317] (first compound 1 µM, partner dose 1.4 µM)",86.1,99.1,75.7,77.2,107,108
"CC1(C)NC(=O)N(c2ccc([N+](=O)[O-])c(C(F)(F)F)c2)C1=O [nilutamide] + C[C@@H]1CCN(C(=O)CC#N)C[C@@H]1N(C)c1ncnc2[nH]ccc12 [CP690550] (first compound 1 µM, partner dose 1 µM)",107,101,93.4,86.6,112,49.2
"O=c1[nH]nc(Sc2ncc([N+](=O)[O-])s2)n1-c1ccc2c(c1)OCCO2 + O=C(O)C(=O)Nc1sc2c(c1C(=O)O)CCNC2 [TCS401] (first compound 0.2 µM, partner dose 1.66667 µM)",94.9,98.8,78.8,95.5,96.1,98.2
"Cn1cncc1[C@@](N)(c1ccc(Cl)cc1)c1ccc2c(c1)c(-c1cccc(Cl)c1)cc(=O)n2C [tipifarnib] + CN(NC(=O)CC(=O)NN(C)C(=S)c1ccccc1)C(=S)c1ccccc1 [STA4783] (first compound 0.01 µM, partner dose 0.006 µM)",67.2,44.2,19.3,86.7,40.7,91.9
"CC1(C)NC(=O)N(c2ccc([N+](=O)[O-])c(C(F)(F)F)c2)C1=O [nilutamide] + Cn1cncc1[C@@](N)(c1ccc(Cl)cc1)c1ccc2c(c1)c(-c1cccc(Cl)c1)cc(=O)n2C [tipifarnib] (first compound 1 µM, partner dose 0.01 µM)",90.7,79.2,81.8,51.5,84,72.8
"COc1cc(Nc2ncc(F)c(Nc3ccc4c(n3)NC(=O)C(C)(C)O4)n2)cc(OC)c1OC [Tamatinib] + NC(=O)Nc1cc(-c2cccc(F)c2)sc1C(=O)N[C@H]1CCCNC1 [AZD7762] (first compound 0.4 µM, partner dose 0.02 µM)",67.1,86.3,60.5,62.2,62.5,82.8
"COc1cc(Nc2ncc(F)c(Nc3ccc4c(n3)NC(=O)C(C)(C)O4)n2)cc(OC)c1OC [Tamatinib] + CO[C@@H]1[C@H](N(C)C(=O)c2ccccc2)C[C@H]2O[C@]1(C)n1c3ccccc3c3c4c(c5c6ccccc6n2c5c31)C(=O)NC4 [Midostaurin] (first compound 0.4 µM, partner dose 0.08 µM)",64.2,57.2,53.2,70.2,66.8,87.4
"CC1(C)NC(=O)N(c2ccc([N+](=O)[O-])c(C(F)(F)F)c2)C1=O [nilutamide] + O=c1cc(-c2cccc3c2Sc2ccccc2S3)oc(N2CCOCC2)c1 [KU55933] (first compound 1 µM, partner dose 1 µM)",107,97.4,101,119,88.9,128
"O=C(Nc1cccc(Cl)c1)Nc1ncc(CCNc2ncnc3ccsc23)s1 + COc1ccc(-c2ccc3c(N4CCOCC4)nc(N4C[C@@H](C)O[C@@H](C)C4)nc3n2)cc1CO [KU0063794] (first compound 0.0008 µM, partner dose 0.02 µM)",75.3,111,89.6,81.5,99.4,89.5
"O=c1[nH]nc(Sc2ncc([N+](=O)[O-])s2)n1-c1ccc2c(c1)OCCO2 + COc1ccc(Cl)c(Nc2nc3ccccc3nc2NS(=O)(=O)c2cccc(NC(=O)C(C)(C)N)c2)c1 [XL147] (first compound 0.2 µM, partner dose 0.8 µM)",105,110,73.6,108,92.2,78.7
"Cn1cncc1[C@@](N)(c1ccc(Cl)cc1)c1ccc2c(c1)c(-c1cccc(Cl)c1)cc(=O)n2C [tipifarnib] + O=C(O)c1ccc(-c2c[nH]c3ncc(-c4ccccc4)cc23)cc1C1CCCC1 [GSK650394] (first compound 0.01 µM, partner dose 0.16 µM)",87.7,75.5,88.3,103,87.9,82.1
"Cn1cncc1[C@@](N)(c1ccc(Cl)cc1)c1ccc2c(c1)c(-c1cccc(Cl)c1)cc(=O)n2C [tipifarnib] + CC(C)CCN1c2nc(Nc3cc(F)c(O)c(F)c3)ncc2N(C)C(=O)C1C [BID1870] (first compound 0.01 µM, partner dose 0.2 µM)",80.9,84.3,91.5,88,89.7,98.8
"CC1(C)NC(=O)N(c2ccc([N+](=O)[O-])c(C(F)(F)F)c2)C1=O [nilutamide] + COC(=O)c1sccc1S(=O)(=O)Nc1ccc(Nc2ccccc2)cc1OC [GSK0660] (first compound 1 µM, partner dose 1 µM)",98.6,104,96.6,88.3,115,88.8
"C[C@@H]1CCN(C(=O)CC#N)C[C@@H]1N(C)c1ncnc2[nH]ccc12 + COC(=O)c1sccc1S(=O)(=O)Nc1ccc(Nc2ccccc2)cc1OC [GSK0660] (first compound 1 µM, partner dose 1 µM)",97.7,97,92.7,93.1,109,103
"Cn1cncc1[C@@](N)(c1ccc(Cl)cc1)c1ccc2c(c1)c(-c1cccc(Cl)c1)cc(=O)n2C [tipifarnib] + COc1cc(N2CCC(N3CCN(C)CC3)CC2)ccc1Nc1ncc(Cl)c(Nc2ccccc2S(=O)(=O)C(C)C)n1 [NVP-TAE684] (first compound 0.01 µM, partner dose 0.08 µM)",65.2,105,82.9,82.7,107,87.8
"COc1cc(Nc2ncc(F)c(Nc3ccc4c(n3)NC(=O)C(C)(C)O4)n2)cc(OC)c1OC [Tamatinib] + NCC(=O)Nc1ccc(-n2nc(C(F)(F)F)cc2-c2ccc3c(ccc4ccccc43)c2)cc1 [OSU03012] (first compound 0.4 µM, partner dose 1 µM)",93.2,90.9,73.1,49.8,85.6,90.5
"O=C(O)c1ccc(-c2c[nH]c3ncc(-c4ccccc4)cc23)cc1C1CCCC1 + Oc1nc(-c2ccc(C(F)(F)F)cc2)nc2c1CSCC2 [XAV939] (first compound 0.16 µM, partner dose 2 µM)",87,68.9,85.3,84,81.1,99.6
"CC1(C)NC(=O)N(c2ccc([N+](=O)[O-])c(C(F)(F)F)c2)C1=O [nilutamide] + C=CCn1c(=O)c2cnc(Nc3ccc(N4CCN(C)CC4)cc3)nc2n1-c1cccc(C(C)(C)O)n1 [MK1775] (first compound 1 µM, partner dose 0.02 µM)",93.3,79.6,83.8,71.7,91.4,105
"O=C(O)c1ccc(-c2c[nH]c3ncc(-c4ccccc4)cc23)cc1C1CCCC1 + CCN(CC)CCCCNc1ncc2cc(-c3cc(OC)cc(OC)c3)c(NC(=O)NC(C)(C)C)nc2n1 [PD173074] (first compound 0.16 µM, partner dose 0.1 µM)",95.3,99.2,95.7,86.6,103,95.6
"COc1cc(Nc2ncc(F)c(Nc3ccc4c(n3)NC(=O)C(C)(C)O4)n2)cc(OC)c1OC [Tamatinib] + CN(C)S(=O)(=O)c1ccc2c(c1)/C(=C/c1cc3c([nH]1)CCCC3)C(=O)N2 [SU6656] (first compound 0.4 µM, partner dose 0.4 µM)",61.6,85.5,73.1,82.6,113,105
